Assay results as given in publication PMC6919601, “Identification of Plasmodium dipeptidyl aminopeptidase allosteric inhibitors by high throughput screening” (PLoS ONE, 2019).
The campaign covered roughly 110,000 compounds. About 230 (0.21%) showed an effect of 50% or more. The list shows a part of the results.

target: DPAP1 (Plasmodium falciparum, UniProt Q8IIJ9); test: primary screen, percent inhibition; read by cleavage of a fluorogenic dipeptide substrate; higher = more effect of the substance; set-up: species or system P. falciparum D10 trophozoite lysates; single well
Sequence (Q8IIJ9 whole entry, looked up): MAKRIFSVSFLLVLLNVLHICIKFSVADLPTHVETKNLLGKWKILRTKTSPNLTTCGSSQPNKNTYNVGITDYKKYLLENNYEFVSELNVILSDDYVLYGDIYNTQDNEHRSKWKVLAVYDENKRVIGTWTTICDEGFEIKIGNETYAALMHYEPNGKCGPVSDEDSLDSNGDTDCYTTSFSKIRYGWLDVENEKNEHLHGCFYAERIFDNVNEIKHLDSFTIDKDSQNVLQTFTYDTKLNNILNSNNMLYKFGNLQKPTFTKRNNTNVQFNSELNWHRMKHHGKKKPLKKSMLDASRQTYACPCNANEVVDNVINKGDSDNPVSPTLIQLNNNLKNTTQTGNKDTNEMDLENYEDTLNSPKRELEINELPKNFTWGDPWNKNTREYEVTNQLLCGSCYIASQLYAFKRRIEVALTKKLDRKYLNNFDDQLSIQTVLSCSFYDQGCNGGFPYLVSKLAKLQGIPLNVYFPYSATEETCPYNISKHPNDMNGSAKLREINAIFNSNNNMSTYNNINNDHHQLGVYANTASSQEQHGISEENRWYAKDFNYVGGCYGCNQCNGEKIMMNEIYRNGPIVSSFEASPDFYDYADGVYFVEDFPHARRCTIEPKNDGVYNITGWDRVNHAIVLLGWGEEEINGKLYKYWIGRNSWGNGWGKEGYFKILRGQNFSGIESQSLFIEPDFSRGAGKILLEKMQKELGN
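Further: 30 min substrate incubation versus DMSO and 10 µM JCP410 controls.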

SMILES | % Inhibition @ 10 uM [%]
S=C1N(CN2CCOCC2)CCN1CN1CCOCC1 | -4.35
c1ccc2c(c1)-c1ccccc1C2n1ccnc1 | 3.05
CC1(C)CC(NC(=O)C(C)(C)Oc2ccc(Cl)cc2)CC(C)(C)N1 | -7.31
COc1ccc2c(=O)cc(-c3ccccc3)n(C)c2c1 | -3.23
CCCSC1=C(C#N)C(c2ccccc2Cl)CC(=O)N1 (stereo not shown) | -4.08
Oc1nc(-c2ccccc2)nc(O)c1-c1ccccc1 | 5.84
O=C(CSCc1cnn(-c2ccccc2)c1-n1cccc1)NCc1ccc2c(c1)OCO2 | -1.08
O=C(COc1ccc(Cl)cc1)Nc1ccc(S(=O)(=O)Nc2ccc(F)cc2)cc1 | -2.03
CCCN1CCC(N2CCC(C(=O)OCC)CC2)CC1 | -3.6
Cc1ccc(S(=O)(=O)c2nnn3c2nc(N(C)Cc2ccccc2)c2sccc23)cc1 | 2.75
COc1ccc(/C=C2/SC(=O)N(Cc3cccc(C(=O)O)c3)C2=O)cc1 | 1.21
O=C(NCc1nnc(SCC(=O)N2CCOCC2)o1)c1ccccc1F | -3.39
CC(C)Cn1c(=O)c2ccccc2n2c(CCC(=O)O)nnc12 | -9.31
Cc1cc(C)c2nc(N3CCCC(C(=O)NC(C)c4ccccc4)C3)sc2c1 (stereo not shown) | 4.95
CCOc1ccccc1C1C2=C(O)CC(c3ccccc3)CC2=NC(C)=C1C(=O)OC (stereo not shown) | 2.45
CCNC(=O)/C(=C\c1ccc(OC)cc1)NC(=O)c1ccc(Br)cc1 | 2.36
N#Cc1cccc(NC(=O)c2cccnc2)c1 | -3.39
O=C(CSc1nc2ccccc2s1)NC1CCCCC1 | 0.526
COc1ccccc1NCN1C(=O)S/C(=C/c2ccc(F)cc2)C1=O | -1.32
Cc1cc2ccccc2n1CCNC(=O)C(=O)c1cn(CC(=O)N2CCOCC2)c2ccccc12 | 4.59
O=C(NCCO)c1nnc(Cc2c(F)cccc2Cl)o1 | -3.9
CCN(CC)CCNC(=O)CCc1nnc2n(Cc3ccccc3)c(=O)c3ccccc3n12 | -6.07

SMILES | % Inhibition @ 10 uM [%]
NC(=O)CSc1nnc(-c2cccs2)n1-c1cccc(C(F)(F)F)c1 | -6.91
O=C(CN1C(=O)c2cccc3cccc(c23)C1=O)N1CCc2ccccc2C1 | 8.36
CCn1c(/C=C/c2c(C)n(C)c3ccccc23)nc2ccccc2c1=O | -1.2
CC1(NC(=O)NC2CCS(=O)(=O)C2)CCS(=O)(=O)C1 (stereo not shown) | -1.11
c1ccc(Oc2cccc(CN3CCN(Cc4ccncc4)CC3)c2)cc1 | -5.26
CCc1c(-c2ccccc2)n(CCCO)c2nc3c(c(=O)n(C)c(=O)n3C)n12 | 0.121
CCC(=O)N1N=C(C(F)(F)F)CC1(O)c1ccc(F)cc1 (stereo not shown) | 4.01
Cc1nn(C)c(C)c1CNC(=O)c1cc2n(n1)C(C(F)(F)F)CC(c1ccc3c(c1)OCO3)N2 (stereo not shown) | -0.62
Cc1cc(C)c(S(=O)(=O)N2CCN(S(=O)(=O)c3c(C)cc(C)cc3C)CC2)c(C)c1 | -4.43
CCn1cc(C(=O)NCCN(C)C)c2cc(OC)c(OC)cc2c1=O | -4.06
O=C(Nc1ccccc1C(=O)Nc1ccc(Cl)cc1)c1ccccc1 | 1.15
CC1CCN(C(=O)/C=C\c2ccccc2)CC1 | 0.736
CCN1CCN(c2ncnc3c2cnn3-c2ccccc2)CC1 | 5.38
CN(C)CCN1C(=O)C(O)=C(C(=O)c2ccc(Cl)cc2)C1c1ccc(Br)cc1 (stereo not shown) | 1.4
Cc1ccccc1CN1CCC(N2CCN(CCO)CC2)CC1 | -9.16
CC(C)C[C@H](NS(=O)(=O)c1cccc2ccccc12)C(=O)N[C@@H](CCc1ccccc1)CS(=O)(=O)c1ccc2ccccc2c1 | -5.64
COc1ccccc1Cn1c(NCCCO)nc2c1c(=O)n(C)c(=O)n2C | 0.279
CCc1ccccc1NC(=S)NC(=O)c1ccc(Cl)cc1 | 1.35
c1ccc(CNC2CCc3ccccc3C2)nc1 (stereo not shown) | -3.6
Cc1cc(C)cc(N2C(=O)CC(N3CCCCC3)C2=O)c1 (stereo not shown) | 2.75
O=C(/C=C/c1ccc(F)cc1)NC1CC1 | 2.16
O=C(NCCNC(=O)C1CCCNC1=O)c1ccc(Cl)cc1 (stereo not shown) | -9.34

SMILES | % Inhibition @ 10 uM [%]
CN1CCN(CCc2nnc(S)n2-c2ccccc2)CC1 | 2.6
CC1=CC2=NC(=O)/C(=C\c3ccc(OCCOc4ccccc4)cc3)C(=N)N2O1 | 0.317
COCCOC(=O)C1=C(N)OC2=C(C(=O)CC(C)(C)C2)C1c1cccnc1 (stereo not shown) | 4.86
COc1ccc(OC(C)C(=O)NCc2nc(-c3ccc(C)cc3)no2)cc1 (stereo not shown) | 3.74
O=C(CC1Sc2ccc(C(F)(F)F)cc2NC1=O)Nc1ccccc1Cl (stereo not shown) | 0.992
COC(=O)c1cc2cccc3c2n1CCS3 | -5.37
CCSc1nc(-c2ccc(OC)cc2)cc(C(F)(F)F)c1C#N | -1.4
CC1(C)CC(=O)C2=C(C1)OC(c1cccs1)C(C#N)=C2N (stereo not shown) | -9.24
CCCCNC(=O)CS(=O)Cc1nc(-c2cccc(Cl)c2)oc1C (stereo not shown) | -4.71
CC1C(O)C(C)C(c2ccccc2)N(C)C1c1ccccc1 (stereo not shown) | 2
COc1cccc(-c2nc3ccccc3[nH]2)c1 | -0.546
CCOc1ccc(-n2c(CSc3nc(C)cc(C)n3)nnc2SCC(N)=O)cc1 | -0.942
O=[N+]([O-])c1ccc2c(c1)C1C=CCC1C(c1ccccc1Cl)N2 (stereo not shown) | 2.22
O=C(NCCCCCCNC(=O)N1CCCCC1)N1CCCCC1 | 4.33
CCc1c(C)sc(NC(=O)Nc2ccc(C)cc2)c1C(N)=O | 2.05
CC(C)c1ccc(-c2c(C#N)c(N)nc3c2CCC3)cc1 | -6.22
Cc1ccc(S(=O)(=O)c2cc3ccc(C)n3cn2)cc1 | -1.24
COc1cc(OC)cc(-c2nc3nc(C)c(CCC(=O)NC(C)c4ccccc4)c(C)n3n2)c1 (stereo not shown) | 1.26
COc1ccc(C(=O)N/C(=C\c2cccc3ccccc23)C(=O)Nc2cccc(C(C)=O)c2)cc1 | -4.03
N#Cc1cc([N+](=O)[O-])cnc1NCCO | 5
